Reference: patent publication US9234216B2, “Variant CBH I polypeptides” (BP Corporation North America Inc., priority 2011, dated 2016)

Test: Saccharification of pretreated bagasse by CBHI variants in a cocktail with CBHII and EG
Assay type: biochemical
Conditions: Table 6; for % improvement over WT @ 72 hr: Point Mutant Recombinants, time point 72 hours; for Dose Reduction: method not described; for % improvement over WT @ 48 hr: 5% w/v pretreated bagasse, 35° C., pH5.2, CBHI 4 mg/g cellulose

| Molecule | % improvement over WT @ 72 hr | Dose Reduction | % improvement over WT @ 48 hr |
| --- | --- | --- | --- |
| SEQ ID 123, 124: BD29555 CBH I variant: N222H, L225Y, K345D, N352V, E386S, V451W (protein) MSALNSFNMYKSALILGSLLATAGAQQIGTYTAETHPSLSWSTCKSGGSCTTNSGAITLDANWRWVHGVNTSTNCYTGNTWNTAICDTDASCAQDCALDGADYSGTYGITTSGNSLRLNFVTGSNVGSRTYLMADNTHYQIFDLLNQEFTFTVDVSHLPCGLNGALYFVTMDADGGVSKYPNNKAGAQYGVGYCDSQCPRDLKFIAGQANVEGWTPSSNNAHTGYGNHGACCAELDIWEANSISEALTPHPCDTPGLSVCTTDACGGTYSSDRYAGTCDPDGCDFNPYRLGVTDFYGSGKTVDTTKPITVVTQFVTDDGTSTGTLSEIRRYYVQNGVVIPQPSSDISGVSGVVINSDFCDAEISTFGETASFSKHGGLAKMGAGMSAGMVLVMSLWDDYSVNMLWLDSTYPTNATGTPGAARGSCPTTSGDPKTVESQSGSSYVTFSDIRWGPFNSTFSGGSSTGGSSTTTASGTTTTKASSTSTSSTSTGTGVAAHWGQCGGQGWTGPTTCASGTTCTVVNPYYSQCL | 19.6% | 0.75X |  |
| SEQ ID 125, 126: BD29555 CBH I variant: S326L, K345D, N352V (protein) MSALNSFNMYKSALILGSLLATAGAQQIGTYTAETHPSLSWSTCKSGGSCTTNSGAITLDANWRWVHGVNTSTNCYTGNTWNTAICDTDASCAQDCALDGADYSGTYGITTSGNSLRLNFVTGSNVGSRTYLMADNTHYQIFDLLNQEFTFTVDVSHLPCGLNGALYFVTMDADGGVSKYPNNKAGAQYGVGYCDSQCPRDLKFIAGQANVEGWTPSSNNANTGLGNHGACCAELDIWEANSISEALTPHPCDTPGLSVCTTDACGGTYSSDRYAGTCDPDGCDFNPYRLGVTDFYGSGKTVDTTKPITVVTQFVTDDGTSTGTLLEIRRYYVQNGVVIPQPSSDISGVSGVVINSDFCDAEISTFGETASFSKHGGLAKMGAGMEAGMVLVMSLWDDYSVNMLWLDSTYPTNATGTPGAARGSCPTTSGDPKTVESQSGSSYVTFSDIRVGPFNSTFSGGSSTGGSSTTTASGTTTTKASSTSTSSTSTGTGVAAHWGQCGGQGWTGPTTCASGTTCTVVNPYYSQCL | 18.6% | 0.6X |  |
| SEQ ID 131, 132: BD29555 CBH I variant: E386S, V451W (protein) MSALNSFNMYKSALILGSLLATAGAQQIGTYTAETHPSLSWSTCKSGGSCTTNSGAITLDANWRWVHGVNTSTNCYTGNTWNTAICDTDASCAQDCALDGADYSGTYGITTSGNSLRLNFVTGSNVGSRTYLMADNTHYQIFDLLNQEFTFTVDVSHLPCGLNGALYFVTMDADGGVSKYPNNKAGAQYGVGYCDSQCPRDLKFIAGQANVEGWTPSSNNANTGLGNHGACCAELDIWEANSISEALTPHPCDTPGLSVCTTDACGGTYSSDRYAGTCDPDGCDFNPYRLGVTDFYGSGKTVDTTKPITVVTQFVTDDGTSTGTLSEIRRYYVQNGVVIPQPSSKISGVSGNVINSDFCDAEISTFGETASFSKHGGLAKMGAGMSAGMVLVMSLWDDYSVNMLWLDSTYPTNATGTPGAARGSCPTTSGDPKTVESQSGSSYVTFSDIRWGPFNSTFSGGSSTGGSSTTTASGTTTTKASSTSTSSTSTGTGVAAHWGQCGGQGWTGPTTCASGTTCTVVNPYYSQCL | 12.2% | 0.75X |  |
| SEQ ID 129, 130: BD29555 CBH I variant: P159G, S217K, N222H, L225Y, Q334S, K345D, E386S (protein) MSALNSFNMYKSALILGSLLATAGAQQIGTYTAETHPSLSWSTCKSGGSCTTNSGAITLDANWRWVHGVNTSTNCYTGNTWNTAICDTDASCAQDCALDGADYSGTYGITTSGNSLRLNFVTGSNVGSRTYLMADNTHYQIFDLLNQEFTFTVDVSHLGCGLNGALYFVTMDADGGVSKYPNNKAGAQYGVGYCDSQCPRDLKFIAGQANVEGWTPKSNNAHTGYGNHGACCAELDIWEANSISEALTPHPCDTPGLSVCTTDACGGTYSSDRYAGTCDPDGCDFNPYRLGVTDFYGSGKTVDTTKPITVVTQFVTDDGTSTGTLSEIRRYYVSNGVVIPQPSSDISGVSGNVINSDFCDAEISTFGETASFSKHGGLAKMGAGMSAGMVLVMSLWDDYSVNMLWLDSTYPTNATGTPGAARGSCPTTSGDPKTVESQSGSSYVTFSDIRVGPFNSTFSGGSSTGGSSTTTASGTTTTKASSTSTSSTSTGTGVAAHWGQCGGQGWTGPTTCASGTTCTVVNPYYSQCL | 17.2% | 0.65X |  |
| SEQ ID 127, 128: BD29555 CBH I variant: L225Y, D318Q, T324R, S326L, K345D, E386S (protein) MSALNSFNMYKSALILGSLLATAGAQQIGTYTAETHPSLSWSTCKSGGSCTTNSGAITLDANWRWVHGVNTSTNCYTGNTWNTAICDTDASCAQDCALDGADYSGTYGITTSGNSLRLNFVTGSNVGSRTYLMADNTHYQIFDLLNQEFTFTVDVSHLPCGLNGALYFVTMDADGGVSKYPNNKAGAQYGVGYCDSQCPRDLKFIAGQANVEGWTPSSNNANTGYGNHGACCAELDIWEANSISEALTPHPCDTPGLSVCTTDACGGTYSSDRYAGTCDPDGCDFNPYRLGVTDFYGSGKTVDTTKPITVVTQFVTDQGTSTGRLLEIRRYYVQNGVVIPQPSSDISGVSGNVINSDFCDAEISTFGETASFSKHGGLAKMGAGMSAGMVLVMSLWDDYSVNMLWLDSTYPTNATGTPGAARGSCPTTSGDPKTVESQSGSSYVTFSDIRVGPFNSTFSGGSSTGGSSTTTASGTTTTKASSTSTSSTSTGTGVAAHWGQCGGQGWTGPTTCASGTTCTVVNPYYSQCL | 19.2% | 1X |  |
| SEQ ID 95, 96: BD29555 CBH I entry site variant: Y31L, T32Q, S72A, T73Q, T77D, F120-VTGSNVG-S128 → F120-VQQGPYSKNVG-S132 (protein, loop F120-S128 replaced by VQQGPYSKNVG, BD29555 CBH I entry site variant: Y31L, T32Q, S72A, T73Q, T77D, F120-VTGSNVG-S128 → F120-…-S132) MSALNSFNMYKSALILGSLLATAGAQQIGTLQAETHPSLSWSTCKSGGSCTTNSGAITLDANWRWVHGVNTAQNCYDGNTWNTAICDTDASCAQDCALDGADYSGTYGITTSGNSLRLNFVQQGPYSKNVGSRTYLMADNTHYQIFDLLNQEFTFTVDVSHLPCGLNGALYFVTMDADGGVSKYPNNKAGAQYGVGYCDSQCPRDLKFIAGQANVEGWTPSSNNANTGLGNHGACCAELDIWEANSISEALTPHPCDTPGLSVCTTDACGGTYSSDRYAGTCDPDGCDFNPYRLGVTDFYGSGKTVDTTKPITVVTQFVTDDGTSTGTLSEIRRYYVQNGVVIPQPSSKISGVSGNVINSDFCDAEISTFGETASFSKHGGLAKMGAGMEAGMVLVMSLWDDYSVNMLWLDSTYPTNATGTPGAARGSCPTTSGDPKTVESQSGSSYVTFSDIRVGPFNSTFSGGSSTGGSSTTTASGTTTTKASSTSTSSTSTGTGVAAHWGQCGGQGWTGPTTCASGTTCTVVNPYYSQCL |  |  | 10.3% |
| SEQ ID 99, 100: BD29555 CBH I entry site variant: S72Y, T73Q, F120-VTGSNVG-S128 → F120-VQQGPYSKNVG-S132 (protein, loop F120-S128 replaced by VQQGPYSKNVG, BD29555 CBH I entry site variant: S72Y, T73Q, F120-VTGSNVG-S128 → F120-…-S132) MSALNSFNMYKSALILGSLLATAGAQQIGTYTAETHPSLSWSTCKSGGSCTTNSGAITLDANWRWVHGVNTYQNCYTGNTWNTAICDTDASCAQDCALDGADYSGTYGITTSGNSLRLNFVQQGPYSKNVGSRTYLMADNTHYQIFDLLNQEFTFTVDVSHLPCGLNGALYFVTMDADGGVSKYPNNKAGAQYGVGYCDSQCPRDLKFIAGQANVEGWTPSSNNANTGLGNHGACCAELDIWEANSISEALTPHPCDTPGLSVCTTDACGGTYSSDRYAGTCDPDGCDFNPYRLGVTDFYGSGKTVDTTKPITVVTQFVTDDGTSTGTLSEIRRYYVQNGVVIPQPSSKISGVSGNVINSDFCDAEISTFGETASFSKHGGLAKMGAGMEAGMVLVMSLWDDYSVNMLWLDSTYPTNATGTPGAARGSCPTTSGDPKTVESQSGSSYVTFSDIRVGPFNSTFSGGSSTGGSSTTTASGTTTTKASSTSTSSTSTGTGVAAHWGQCGGQGWTGPTTCASGTTCTVVNPYYSQCL |  | 0.5X | 6.7% |
| SEQ ID 97, 98: BD29555 CBH I entry site variant: Y31L, S72W, T77D, F120-VTGSNVG-S128 → F120-VQQGPYSKNVG-S132 (protein, loop F120-S128 replaced by VQQGPYSKNVG, BD29555 CBH I entry site variant: Y31L, S72W, T77D, F120-VTGSNVG-S128 → F120-…-S132) MSALNSFNMYKSALILGSLLATAGAQQIGTLTAETHPSLSWSTCKSGGSCTTNSGAITLDANWRWVHGVNTWTNCYDGNTWNTAICDTDASCAQDCALDGADYSGTYGITTSGNSLRLNFVQQGPYSKNVGSRTYLMADNTHYQIFDLLNQEFTFTVDVSHLPCGLNGALYFVTMDADGGVSKYPNNKAGAQYGVGYCDSQCPRDLKFIAGQANVEGWTPSSNNANTGLGNHGACCAELDIWEANSISEALTPHPCDTPGLSVCTTDACGGTYSSDRYAGTCDPDGCDFNPYRLGVTDFYGSGKTVDTTKPITVVTQFVTDDGTSTGTLSEIRRYYVQNGVVIPQPSSKISGVSGNVINSDFCDAEISTFGETASFSKHGGLAKMGAGMEAGMVLVMSLWDDYSVNMLWLDSTYPTNATGTPGAARGSCPTTSGDPKTVESQSGSSYVTFSDIRVGPFNSTFSGGSSTGGSSTTTASGTTTTKASSTSTSSTSTGTGVAAHWGQCGGQGWTGPTTCASGTTCTVVNPYYSQCL |  |  | 8.5% |
